B1: chr11:47660561:47660562:-_ENSG00000109919_ENST00000530428|hu_mus|FALSE|FALSE (ssRNA)
RNA: GGGAGUUCUACAGUCCGACGAUCAGCAUAGCAAAAGAGGCCAGGAAGCUGACAUACUUGUCGCCCAAAAAUAUUUCGUCCUAUUGUUGGAGGAAGAGGCUCAUAUCCCACCUGGAUGAGCACUUUCACGUACAUGAGCGGCUGCAACAGAGGAUUGAGCAUCA
B2: chr2:5814250:5814251:-_ENSMUSG00000025816_ENSMUST00000102981|mus_mus|motif|central (ssRNA)
RNA: GGGAGUUCUACAGUCCGACGAUCUUCCUUUCAGGCUUCUGAAUUUCUGGUAGAACUGCACAGAAAGGUUUAAUAACUUCGGAAAACUUGAUGCCCAUGGCGGCGGCUCAGCACACCCGGCGGGCACCCGCGGCCUCGCAGCUGCAACAGAGGAUUGAGCAUCA
B3: chr10:73857132:73857133:-_ENSG00000138303_ENST00000317168|hu_hu|motif|central (ssRNA)
RNA: GGGAGUUCUACAGUCCGACGAUCUUUCCAAGAUCCACCUCAGGAGAAGUCAAUUUGUCCACAGGAAGCGUAGUUUCCAAAGCUGUCGGCGGUGAACCUCUGAGAGAUGUGAAUUGAAUUCAGCUUUAGGGAGCCAAAGUAGAACAACAGAGGAUUGAGCAUCA
B4: 103846480_103848510_1781_3pUTR_ENSG00000155096_ENST00000337198|human|control|control (ssRNA)
RNA: GGGAGUUCUACAGUCCGACGAUCCCAAUUUCUCCAGCCAUGUCAAACACACAUCGAGCAUCAGAUAGAGCAUGUACAUAUACUUGAGAUUCUUUGCAAGCACUCGAAACAUGAAAUUUAACCCCAAUUAUUUGGACAUCAAGUCAACAGAGGAUUGAGCAUCA
B5: 49771899_49772126_2358_CDS_ENSG00000102531_ENST00000398316|human|control|control (ssRNA)
RNA: GGGAGUUCUACAGUCCGACGAUCACUCAGAGCCUGGACCCUGCAAUAAUAGGUAGUUGCUGGUGAAAGUCCUUUUAUUUCAUAACUGAGACCAGGCCCACAGUAACAUAUCUGCAUACUUCCUUCAACUCCUCCCCACUCCAGCAACAGAGGAUUGAGCAUCA
B6: chr11:120668454:120668455:-_ENSMUSG00000025153_ENSMUST00000055655|mus_mus|FALSE|FALSE (ssRNA)
RNA: GGGAGUUCUACAGUCCGACGAUCUGCAGUUUAAUUGUGGGAUCAGGAGAGCAUCAAGAGCAGCAUUUUUACCAGGUUGGUGUAAAAAUGACACAGUCCAGACACUUCUUCACACUGACAGCUGCAGAAAAGUCAAAACCCAAGCAACAGAGGAUUGAGCAUCA
B7: 94366630_94367488_332_3pUTR_ENSMUSG00000026260_ENSMUST00000027478|mouse|control|control (ssRNA)
RNA: GGGAGUUCUACAGUCCGACGAUCCCUGCUUCUGGGUAGUGCUUCAUGCCUAGUUGCUGUGCGAUCUCCUUUGCGAGCUUGUUUUUCCCAGAGCAUAUGUUCCCAUCUACUGUUAUCACUCGGCUGUACUCAUGCAGCUUUUUGCAACAGAGGAUUGAGCAUCA
B8: chr4:57314706:57314707:+_ENSG00000128050_ENST00000264221|hu_mus|hu_hu_hu_mus_True|38_108 (ssRNA)
RNA: GGGAGUUCUACAGUCCGACGAUCCAGUAUUUCAAAUAUAGCUUGUGUGGCAUGACUCAUGAUGUCCACUUCAGUCUGCCCUAUAACAAGGCCAGCAAAGCAAAAUUUUGCAGCAAUGAGUUGCUCCUCAGACCACUGUGGAUCCAACAGAGGAUUGAGCAUCA
B9: chr17:49239293:49239294:+_ENSG00000239672_ENST00000393196|hu_hu|FALSE|FALSE (ssRNA)
RNA: GGGAGUUCUACAGUCCGACGAUCGAGAACUCACAGCUCCAAGAGCUUCCCUCCAAAUUAUGAUGAAGUUCCUGUAAAUAACUAGAUUUCCUACAGCCUGGUCCUCUGCCCAUGGGAAGGAGGGGAAAUGGAUGUGAAAAGCAACAACAGAGGAUUGAGCAUCA
B10: chr2:179883191:179883192:+_ENSMUSG00000039050_ENSMUST00000040668|mus_mus|FALSE|FALSE (ssRNA)
RNA: GGGAGUUCUACAGUCCGACGAUCGUAGAUGGAACCGUGGAACCUGAAGUCUUGAUUGAGACCUUCUGAAUAAAAUGCGCUAAUAGGAGGGUGGUGACUGACCUGCUCAGAUAUAAAUCUGAACCCUAAGUCUUCCCUGAUCAACAACAGAGGAUUGAGCAUCA
B11: chr19:36967751:36967752:+_ENSMUSG00000024811_ENSMUST00000025729|mus_mus|FALSE|FALSE (ssRNA)
RNA: GGGAGUUCUACAGUCCGACGAUCAAAGUGAUACUUAGGGAUACUUGUACCAUCACUCUCUUCUUAUGGAACACUGAAGACUAAUUACAGACAUGUCAUUAGCAUAUGGAAAUAUAAAAUACACUACUUUUUUUUCCUUUUAGACAACAGAGGAUUGAGCAUCA
B12: chr2:52995849:52995850:-_ENSMUSG00000061136_ENSMUST00000076313|mus_hu|motif|central (ssRNA)
RNA: GGGAGUUCUACAGUCCGACGAUCACAGAGAACAAAAUCUUAUCACCUGUGCCUUCAGACUGUCAAGUAUCUUUCGGGCAACGGAAUCCCAUUUGAUGGGAUCCUGAAAGGUAGACAAAGGAUCACAGUCACUUAAGUUACAUCCAACAGAGGAUUGAGCAUCA
B13: 60623461_60623581_92_5pUTR_ENSMUSG00000026014_ENSMUST00000140485|mouse|control|control (ssRNA)
RNA: GGGAGUUCUACAGUCCGACGAUCGCCUCCAGUCGCCGCCGCCGCCGCCUCUCCAGGGGCGACGCUCCUCUCCCGAACGCUGAGAGCGCCCGCAGCUCCCGCGGCGCGCGCUCGGCGACUGACUGACCGACCCACAGAGCGGGCCAACAGAGGAUUGAGCAUCA
B14: chr12:8945443:8945444:+_ENSMUSG00000020585_ENSMUST00000020909|mus_hu|FALSE|FALSE (ssRNA)
RNA: GGGAGUUCUACAGUCCGACGAUCGAAACAUAUACAAACUAGAAACAUGCAACCAUCAUCUUCCACAGUCAAGUCACAAUGUCAAAUAUUUUUCUUGCCUCUGCAGAUGAAAAGUUCAGAUCUUAUACCCAACUACUUACUCACCAACAGAGGAUUGAGCAUCA
B15: chr6:114281168:114281169:-_ENSG00000196591_ENST00000368632|hu_hu|hu_hu_hu_mus_True|38_108 (ssRNA)
RNA: GGGAGUUCUACAGUCCGACGAUCUUCCAUUUUUCUGUAUAAACCAUAAUUUAGCAGCAAGUUAUGAGUCAUCCGGAUUCUAUGAGGCUUCAUGGGAUGACCCUGUCCAUAAUAAUAAUUGCCAAUAUCACCAUCAUAGUAGUACAACAGAGGAUUGAGCAUCA
B16: chr13:100201205:100201206:-_ENSMUSG00000052727_ENSMUST00000064762|mus_hu|FALSE|FALSE (ssRNA)
RNA: GGGAGUUCUACAGUCCGACGAUCUUCAGUGAUGUGAAGCACGCCUGCACCCACUGUAGGGUGAUCUGGAGACUGUCGACUGAAGUCCAUAGCAAGGGAUUGCUCAGGAGAUUCUUGGCCAAAUUCAAUAGACAUUGAGGACUGCAACAGAGGAUUGAGCAUCA
B17: chr4:48472932:48472933:-_ENSMUSG00000028345_ENSMUST00000030030|mus_hu|motif|central (ssRNA)
RNA: GGGAGUUCUACAGUCCGACGAUCAGUUGACGCAUUUGCCAGGGAGACCAUGAUAUCAGACAGUGUUAAAUUCAGUAAGAGAUGAUCGGUGUUAUUGGAGAGAACUGUGCAAUGCUUGAUGCUUUUAUUUGGCUCUUUCCUUUUCAACAGAGGAUUGAGCAUCA
B18: chr1:66486067:66486068:+_ENSMUSG00000015222_ENSMUST00000077355|mus_mus|FALSE|FALSE (ssRNA)
RNA: GGGAGUUCUACAGUCCGACGAUCUCGUCCAGGUCCCAAGUGUCAAUAACUUAAUUGCGUCUUUCUUCCCAUUUAUACAAAAUAACACUUUAAAAAAUGUGUUUCUUACAUGCUCUUUCCUUCCUGCAAUCAGACUCCUUGAUUCAACAGAGGAUUGAGCAUCA
B19: chr17:74801258:74801259:+_ENSMUSG00000024069_ENSMUST00000024870|mus_hu|motif|central (ssRNA)
RNA: GGGAGUUCUACAGUCCGACGAUCGUUUAUUACACCAAAGAGCAGUAUCUUCCAGGACCUUCGGUCAGCUGCUACAAGUCGGAAUUCCCGUAACAACUUGCCAAAAAAGGAUCUUUGUGGUUUUCGAAAGAGAUGAAUUGUCCCCAACAGAGGAUUGAGCAUCA
B20: chr1:23884524:23884525:-_ENSG00000117318_ENST00000374561|perfect_dup|motif|central (ssRNA)
RNA: GGGAGUUCUACAGUCCGACGAUCUUUAAUAUACAUCGCAUUGUUACAGAAAGUCACCUUCCUGUAAAAAAGGUACAAAACCGGUAUACUCUAUUAUAGAGUUCAUAAAUCAGGGCAACAGAACCUUUCUCCAAGGAGACCAGACAACAGAGGAUUGAGCAUCA
B21: chr3:150285740:150285741:+_ENSG00000144895_ENST00000460851|hu_mus|FALSE|FALSE (ssRNA)
RNA: GGGAGUUCUACAGUCCGACGAUCAGCUUUUUUAUUCCACAGCAUUGUAACCUUAUCAGCUUUAAAGAAGCUUUUAUUGGCCAGUGCUGCCUGAGGUCCGGCAAAGUUGGGAUACUGAUACAGUCGAACAAAUGAGGGGGCACCCAACAGAGGAUUGAGCAUCA
B22: chr19:12019223:12019224:+_ENSMUSG00000046139_ENSMUST00000061618|mus_mus|motif|central (ssRNA)
RNA: GGGAGUUCUACAGUCCGACGAUCUGUGAAGGGAAGGUAGGAAAGGCUCAGUGGAGACAGUCAGUAGAUGGUAGAAGGAAGCGGGGGACUGUCACUGGGGAGCAGCUGGUGGAGCCCGAGGCCACAAAAUGAGAAGAAAUGGAGCAACAGAGGAUUGAGCAUCA

Experimental findings from publication PMC12136788 are described below.

The list shows a part of the results.

The test concerns the target T1, UNK ZnF1-3 (human, UniProt Q9C0B0 31-174).
T1 sequence: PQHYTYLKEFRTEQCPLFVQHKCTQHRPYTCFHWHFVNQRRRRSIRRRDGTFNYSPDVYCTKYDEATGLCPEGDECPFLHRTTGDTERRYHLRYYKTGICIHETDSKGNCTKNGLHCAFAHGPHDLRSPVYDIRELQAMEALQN
Briefly: nsRBNS (natural sequence RNA bind-n-seq); RBNS binding buffer (assumed for nsRBNS): 25 mM Tris pH 7.5, 150 mM KCl, 3 mM MgCl2, 0.01% Triton X-100, 500 ug/ml BSA, 20 U/ml SUPERase-In, 4 C; UNK is unkempt and MSI1 is Musashi-1; names of the RNAs are library labels; protein concentration not given here; high values mean tight binding.
For the molecule B1, the binding signal was 2.1 enrichment R. The molecule B2 came in with a binding signal of 0.878 enrichment R. The molecule B3 gave a binding signal of 1.14 enrichment R.

In turn, B4 returned a binding signal of 1.71 enrichment R.

B5 gave a binding signal of 1.16 enrichment R.

In turn, B6 gave a binding signal of 1.87 enrichment R.

For B7, the binding signal was determined as 0.324 enrichment R. In turn, B8 displayed a binding signal of 0.87 enrichment R. B9: the binding signal was determined as 1.55 enrichment R. The figure for B10 is 1.4 enrichment R; for B11 it is 0.504 enrichment R. As for B12, the figure is 0.588 enrichment R; as for B13, 0.41 enrichment R. The figure for B14 is 1.27 enrichment R. In turn, B15 had a binding signal of 0.921 enrichment R. The figure for B16 is 1.08 enrichment R. The figure for B17 is 1.02 enrichment R; for B18 it is 1.08 enrichment R.

The molecule B19 registered a binding signal of 0.86 enrichment R. Molecule B20 displayed a binding signal of 0.905 enrichment R. Molecule B21 registered a binding signal of 1.06 enrichment R. As for B22, the figure is 2.37 enrichment R.
